Source: the supplement of paper PMC3334620
Whole data set: some 33,000 sequences, median “E-score (-0.5 to 0.5)” near -0.043, cut for the highest 2% near 0.37. The list shows a part of the results.

Target: T1, Upc2 (UniProt Q12151)
T1 sequence: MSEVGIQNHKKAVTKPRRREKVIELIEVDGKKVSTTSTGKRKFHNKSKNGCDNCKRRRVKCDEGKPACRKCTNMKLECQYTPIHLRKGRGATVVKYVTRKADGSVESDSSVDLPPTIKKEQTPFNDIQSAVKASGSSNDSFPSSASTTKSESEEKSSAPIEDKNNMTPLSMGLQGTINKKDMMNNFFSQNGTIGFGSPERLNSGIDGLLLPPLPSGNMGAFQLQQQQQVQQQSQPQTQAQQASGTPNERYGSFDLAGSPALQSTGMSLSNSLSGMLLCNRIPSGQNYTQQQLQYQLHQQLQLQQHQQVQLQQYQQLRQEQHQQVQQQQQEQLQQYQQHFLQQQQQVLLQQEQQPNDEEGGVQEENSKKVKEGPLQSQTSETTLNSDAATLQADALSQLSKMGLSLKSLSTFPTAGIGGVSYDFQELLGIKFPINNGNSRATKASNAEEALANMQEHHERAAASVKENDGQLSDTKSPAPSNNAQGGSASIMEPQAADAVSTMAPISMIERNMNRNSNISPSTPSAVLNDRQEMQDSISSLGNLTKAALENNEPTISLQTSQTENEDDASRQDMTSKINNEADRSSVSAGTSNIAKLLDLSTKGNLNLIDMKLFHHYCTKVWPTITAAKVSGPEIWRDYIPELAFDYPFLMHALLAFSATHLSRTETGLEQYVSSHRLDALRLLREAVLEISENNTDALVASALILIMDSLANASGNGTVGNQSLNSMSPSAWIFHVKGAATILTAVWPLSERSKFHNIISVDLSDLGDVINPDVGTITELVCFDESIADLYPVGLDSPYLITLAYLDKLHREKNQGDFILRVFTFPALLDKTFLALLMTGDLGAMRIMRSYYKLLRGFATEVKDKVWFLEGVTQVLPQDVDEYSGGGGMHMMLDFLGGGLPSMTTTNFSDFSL
Assay: PBM E-score (8-mer binding enrichment) (E-score (-0.5 to 0.5)); higher = stronger / more preferred TF binding; most listed sequences are background and not binding sites
Conditions: protein concentration: 200 nM; construct: GST-full length
In short: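 Using PURExpress in vitro transcription/translation, GST-tagged yeast transcription factors were made in full-length or DNA-binding-domain form. These were applied at about 100-200 nM to double-stranded universal all-10-mer Agilent arrays, and bound protein was detected with fluorescent anti-GST. Scans were normalised with masliner before the Universal PBM Analysis Suite assigned E-scores to ungapped eight-base words pooled with their reverse complements.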

Row | Sequence | PBM E-score
1 | GCATGGGA | -0.165
2 | CGACCTGA | 0.212
3 | GATCCCAA | -0.264
4 | CCTATTGC | -0.114
5 | AAATACCT | -0.211
6 | AACGCCGT | 0.227
7 | AATCAGCG | 0.0973
8 | ACACTGGA | -0.138
9 | GCTGTATA | 0.11
10 | CATTTGTC | 0.0413
11 | GTAGAGGA | -0.043
12 | GCCAGAGA | -0.00631
13 | CATGAGGG | -0.138
14 | ACCCTCGG | -0.0688
15 | CATACTGA | -0.0722
16 | GACATACA | -0.0273
17 | ACTAACTG | -0.192
18 | CCATAACG | 0.0465
19 | GGAAAATA | 0.0478
20 | GAGCCTGA | -0.0407
21 | AACGTCTA | -0.0334
22 | GAAGGTTA | 0.00519

Row | Sequence | PBM E-score
23 | GCCACTGA | -0.192
24 | CCCTTGAG | -0.223
25 | ATAACTTC | 0.0484
26 | AAGGAGGA | 0.0664
27 | GAGCTTGA | -0.0854
28 | CGGAACCC | -0.0167
29 | ATTGAATC | -0.166
30 | AGAGAAGG | -0.186
31 | ATTTCACG | 0.168
32 | AGACTAAG | 0.0429
33 | ACTTATCC | 0.041
34 | AGTTGAGG | -0.0957
35 | GCCTGGAC | -0.164
36 | AAGGTTTC | -0.139
37 | ACCTGCTA | -0.158
38 | CGGCAGCA | -0.139
39 | TCGTGGCA | -0.093
40 | CGACTTCC | 0.0204
41 | GCGCTTAA | 0.173
42 | GCGTCTAA | -0.0951
43 | AAATACTC | -0.0601
44 | AGGTCGCG | -0.0323

Row | Sequence | PBM E-score
45 | CGAGAGGC | 0.0241
46 | ACCTACCA | -0.173
47 | CGCTAGAA | -0.15
48 | ATGGCGGG | -0.106
49 | ATGGGCGA | -0.0811
50 | ACTATGAA | -0.0506
51 | CGCAGCTC | 0.0312
52 | GTCCGCAA | -0.0605
53 | ATGGCAGG | -0.163
54 | GGAGTCAC | -0.218
55 | GCCTTTCA | -0.221
56 | AGACAAGG | -0.197
57 | CAGTACGA | 0.411
58 | CTAGATTA | -0.0618
59 | ACCGAAAC | 0.239
60 | TCCAACGA | -0.0253
61 | CTTAGGGC | -0.146
62 | ATTGTGCC | -0.149
63 | CAAAGTCG | 0.0367
64 | AGTGGTAG | -0.0878
65 | GCGCGAAC | 0.135
66 | ATGGTAGG | -0.175

Row | Sequence | PBM E-score
67 | AGTAGGGC | -0.114
68 | CCACCAGG | -0.171
69 | ACCCTTTG | -0.249
70 | CGTTTTAC | 0.272
71 | AACGGGAT | 0.252
72 | CTACGCCC | -0.0731
73 | CTATAAAC | 0.278
74 | TAGTTCGA | -0.115
75 | TACAGGCA | 0.113
76 | GTGTACAC | 0.0361
77 | AGGGCATA | -0.113
78 | CGTGTTAC | 0.138
79 | GTGAGTAA | -0.0525
80 | ATTAAATC | -0.00655
81 | ATTGATTA | 0.106
82 | GTATAATA | 0.375
83 | ACGTCGCC | -0.0186
84 | GTCCTAAA | 0.195
85 | ACCGGGGG | -0.287
86 | ACACGCTA | -0.0131
